According to the supplement of paper PMC12217912:
Some of the results follow. The full chains were built here from the parent and the listed change. Inactive controls read about 0.05.

B1: TEV protease; numbered along this chain (parent)
chain: MGESLFKGPRDYNPISSSICHLTNESDGHTTSLYGIGFGPFIITNKHLFRRNNGTLVVQSLHGVFKVKDTTTLQQHLVDGRDMIIIRMPKDFPPFPQKLKFREPQREERICLVTTNFQTKSMSSMVSDTSCTFPSGDGIFWKHWIQTKDGQCGSPLVSTRDGFIVGIHSASNFTNTNNYFTSVPKNFMELLTNQEAQQWVSGWRLNADSVLWGGHKVFMVKPEEPFQPVKEATQL

Variants of: B1
Test: raw area under fraction-flipped curve 0-4 h after induction (AUC4h, not background-subtracted), DNA-recorder readout of cleavage of the substrate (dimensionless); higher = more cleavage of the substrate by the protease variant
Settings: temperature: 34 °C; time window: 0-4 h after rhamnose induction
Description: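 In vivo DNA recorder in E. coli TOP10(DE3) ΔrhaA at 34 °C. Each TEVp single-site mutant (parent TEVp 0) is paired with a single-site variant of the 7-mer TEVs (canonical ENLYFQ|S). The substrate sits between flexible linkers in a Bxb1-sfGFP-TEVs-SsrA fusion, so cleavage stabilises Bxb1 and speeds flipping of a recombination array, read by NGS. The value is the raw area under the fraction-flipped curve over 0-4 h after rhamnose induction (AUC4h), with ≥20 reads per time point. It is not background-subtracted; inactive controls average about 0.047.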
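Also: Bxb1 expression induced with 0.2% (w/v) L-rhamnose at OD600 near 0.5, cultures sampled hourly, flipped fraction per protease–substrate barcode pair counted by paired-end Illumina sequencing.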

Variant | area with substrate ANLYFQS | area with substrate CNLYFQS | area with substrate DNLYFQS | area with substrate FNLYFQS | area with substrate GNLYFQS | area with substrate HNLYFQS | area with substrate KNLYFQS | area with substrate LNLYFQS | area with substrate PNLYFQS | area with substrate QNLYFQS | area with substrate TNLYFQS | area with substrate WNLYFQS | area with substrate INLYFQS | area with substrate MNLYFQS | area with substrate NNLYFQS | area with substrate RNLYFQS | area with substrate SNLYFQS | area with substrate YNLYFQS | area with substrate VNLYFQS
W144M | 0.0666 | 0.0766 | 0.0838 | 0.0605 | 0.0685 | 0.0681 | 0.0593 | 0.0614 | 0.0643 | 0.0805 | 0.0774 | 0.0631 | – | – | – | – | – | – | –
W144C | 0.0696 | – | 0.0745 | – | 0.0693 | 0.0677 | – | – | 0.0772 | – | 0.0677 | 0.0457 | 0.0677 | 0.0675 | 0.066 | 0.0741 | 0.0617 | 0.0686 | –
W144R | 0.0609 | 0.0732 | 0.0636 | 0.0581 | – | 0.0681 | 0.058 | 0.0662 | 0.0683 | – | 0.0815 | 0.0518 | – | – | – | – | – | 0.0668 | –
W144Y | 0.0652 | 0.073 | 0.0631 | 0.067 | – | 0.0715 | 0.0574 | 0.0706 | 0.0654 | 0.082 | 0.0586 | 0.0565 | 0.063 | 0.083 | 0.054 | 0.0651 | 0.0649 | 0.0761 | 0.0755
W144S | 0.0737 | 0.065 | 0.065 | – | – | 0.046 | 0.0646 | 0.0608 | 0.0762 | – | 0.0668 | 0.0554 | 0.0716 | 0.059 | 0.0656 | – | 0.0493 | 0.0802 | 0.0587
G150E | 0.0628 | 0.074 | 0.061 | 0.0576 | – | 0.056 | 0.0696 | – | 0.0665 | – | 0.0489 | 0.0244 | 0.0546 | 0.06 | 0.058 | 0.0642 | 0.0518 | 0.0723 | 0.0687
G150W | 0.0602 | 0.0586 | 0.0598 | 0.0508 | 0.0624 | 0.0597 | 0.0611 | 0.0587 | 0.0582 | – | 0.0574 | 0.0555 | 0.0625 | 0.0602 | 0.0562 | 0.0544 | 0.0773 | 0.0786 | 0.0419
Q105W | 0.063 | 0.0686 | 0.0782 | – | 0.0713 | 0.0637 | 0.0785 | 0.0661 | 0.0664 | – | 0.0635 | 0.0543 | 0.0651 | 0.0576 | 0.069 | – | 0.0599 | – | 0.071
Q105F | 0.0646 | 0.0693 | 0.0466 | – | – | 0.0487 | 0.0608 | – | 0.0683 | – | 0.068 | – | – | 0.0716 | – | – | 0.0538 | 0.0567 | –
P134H | 0.0752 | 0.0506 | 0.0681 | 0.0596 | – | 0.0603 | 0.0669 | 0.0625 | 0.06 | – | 0.062 | 0.0574 | 0.072 | 0.0572 | 0.0682 | – | 0.0756 | – | 0.0724
D161V | 0.0425 | 0.0444 | 0.0582 | 0.0597 | 0.0682 | 0.0511 | 0.0312 | 0.0548 | 0.0565 | – | 0.053 | 0.0574 | 0.0464 | 0.0577 | 0.046 | 0.0495 | 0.0519 | 0.0512 | –
V165E | 0.0486 | 0.0511 | 0.0553 | 0.051 | – | 0.0513 | 0.0561 | 0.053 | 0.0522 | – | 0.006 | 0.0407 | 0.0595 | 0.0554 | 0.0395 | – | 0.0181 | 0.0493 | 0.0657
G136W | 0.0707 | – | – | – | 0.0619 | 0.0578 | 0.0838 | 0.0591 | – | 0.0709 | 0.0625 | 0.0573 | 0.066 | 0.0449 | – | – | 0.0494 | 0.0597 | 0.0537
R106D | 0.0788 | 0.0673 | 0.0694 | 0.0581 | 0.0656 | 0.0818 | – | 0.0585 | 0.087 | – | 0.064 | 0.0607 | – | – | 0.0629 | – | 0.0819 | 0.0595 | 0.0733
F117N | 0.0655 | 0.0772 | 0.0849 | – | – | 0.0629 | – | 0.0638 | 0.0649 | – | – | 0.0592 | – | 0.0696 | 0.0411 | – | 0.0554 | – | –
P104I | 0.0624 | – | 0.0601 | 0.0739 | 0.0556 | 0.0698 | 0.106 | 0.0555 | 0.0528 | – | 0.0599 | 0.0642 | 0.0529 | 0.0574 | – | 0.0591 | 0.0452 | 0.0584 | 0.0867
P104F | 0.0658 | – | – | – | – | – | – | 0.0523 | – | – | – | 0.0411 | – | 0.0486 | 0.062 | – | – | – | –
P104W | 0.0511 | 0.0413 | – | 0.05 | 0.0682 | 0.0501 | 0.045 | – | 0.0522 | – | 0.036 | 0.0483 | – | – | – | – | 0.0312 | 0.0525 | 0.054
K142G | 0.0642 | 0.0546 | 0.0708 | 0.0543 | 0.0758 | 0.0685 | 0.0702 | 0.0675 | 0.0467 | – | 0.0619 | 0.0656 | 0.0678 | 0.0651 | 0.0729 | 0.0685 | 0.0645 | 0.0659 | –
R160Y | 0.0662 | 0.102 | 0.113 | – | 0.0634 | 0.0751 | – | 0.0395 | 0.0576 | – | 0.07 | 0.0551 | – | – | 0.0396 | – | 0.0852 | 0.0265 | 0.0558
R160V | 0.0748 | 0.0679 | 0.0798 | 0.0605 | 0.0741 | 0.0667 | – | 0.0691 | 0.0661 | – | 0.069 | 0.0653 | – | 0.0651 | 0.0681 | – | 0.0748 | 0.0639 | 0.0739
R160I | 0.0722 | 0.0593 | 0.0749 | 0.0634 | 0.0672 | 0.0643 | 0.067 | 0.0628 | – | – | 0.0538 | 0.0631 | 0.0552 | 0.0655 | 0.0663 | 0.0197 | 0.0657 | 0.0619 | 0.0531
R160K | 0.0634 | 0.0724 | – | 0.0659 | – | 0.0702 | 0.066 | 0.0704 | – | – | 0.0546 | – | – | 0.0715 | – | 0.0637 | 0.0766 | 0.0533 | –
R160D | 0.0613 | 0.074 | – | – | 0.0675 | 0.0658 | 0.0758 | 0.0658 | 0.0719 | – | 0.117 | 0.0588 | 0.0673 | 0.0667 | 0.066 | 0.0691 | – | 0.0655 | 0.0513
I164A | 0.0519 | 0.0512 | 0.0715 | – | – | 0.0455 | 0.0505 | 0.0512 | 0.0473 | – | – | 0.0831 | – | – | – | – | 0.0562 | 0.0323 | 0.0512
